According to the supplement of paper PMC3334620:
Whole data set: some 33,000 sequences, median “E-score (-0.5 to 0.5)” near -0.011, cut for the highest 2% near 0.28. The list shows a part of the results.

target: T1, Gcr1 (UniProt P07261); assay: PBM E-score (8-mer binding enrichment) (E-score (-0.5 to 0.5)); higher = stronger / more preferred TF binding; most listed sequences are background and not binding sites; settings: protein concentration: 100 nM; construct: GST-full length
T1 sequence: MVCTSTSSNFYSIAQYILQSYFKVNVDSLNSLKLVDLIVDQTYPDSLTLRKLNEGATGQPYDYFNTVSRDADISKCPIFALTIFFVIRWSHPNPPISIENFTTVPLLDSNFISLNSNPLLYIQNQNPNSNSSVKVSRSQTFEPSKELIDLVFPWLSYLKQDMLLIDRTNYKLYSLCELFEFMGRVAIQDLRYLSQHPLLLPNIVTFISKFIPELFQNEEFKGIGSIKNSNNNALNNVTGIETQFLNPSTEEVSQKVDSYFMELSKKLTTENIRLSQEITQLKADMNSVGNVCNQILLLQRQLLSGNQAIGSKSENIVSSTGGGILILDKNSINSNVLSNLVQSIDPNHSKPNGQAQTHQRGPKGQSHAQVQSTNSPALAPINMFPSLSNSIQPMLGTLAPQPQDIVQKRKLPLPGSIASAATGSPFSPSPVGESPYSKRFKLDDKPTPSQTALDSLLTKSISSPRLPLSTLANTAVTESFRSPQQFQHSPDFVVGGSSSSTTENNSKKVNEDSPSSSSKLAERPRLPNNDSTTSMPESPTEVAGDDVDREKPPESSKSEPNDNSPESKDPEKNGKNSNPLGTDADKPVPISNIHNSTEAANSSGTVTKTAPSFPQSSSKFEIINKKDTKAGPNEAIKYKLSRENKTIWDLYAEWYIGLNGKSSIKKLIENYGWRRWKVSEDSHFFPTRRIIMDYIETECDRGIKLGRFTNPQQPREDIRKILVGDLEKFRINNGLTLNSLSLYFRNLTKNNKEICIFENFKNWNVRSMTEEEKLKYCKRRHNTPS
Outline: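 Universal all-10-mer Agilent arrays, fresh or stripped once, were converted to double-stranded form by primer extension. GST-tagged yeast transcription factors from PURExpress in vitro transcription/translation, full-length or DNA-binding domain only, were applied at about 100-200 nM and detected with fluorescent anti-GST. After masliner normalisation, the Universal PBM Analysis Suite scored each ungapped eight-base word together with its reverse complement by E-score.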

Row | Sequence | PBM E-score
1 | AGTCATGA | -0.128
2 | GCGACTTA | 0.165
3 | ACACGCTA | -0.198
4 | AATAATAC | 0.146
5 | CCTGTCTC | 0.124
6 | AAGTGCAC | -0.107
7 | ACGCCGGG | -0.0339
8 | AGATCATG | -0.118
9 | ACCCAGCT | -0.0549
10 | AGGTCACC | 0.0121
11 | CAATGTAG | -0.171
12 | GACGTAGA | -0.0244
13 | AGCCAGAG | 0.124
14 | GCCAATCA | 0.0668
15 | GAGGCAGC | 0.147
16 | GAGTTGGA | 0.0545
17 | GACATCCA | 0.156
18 | GTAGGTCA | -0.348
19 | CGGTGGTA | -0.142
20 | ACACTCGC | 0.0484
21 | ACAGAGAC | 0.0515
22 | CGCTAAGC | 0.0421
23 | AGGACTGA | -0.184
24 | AGTCATTA | -0.157
25 | AAACCACG | -0.157

Row | Sequence | PBM E-score
26 | CCCGAGAC | 0.0132
27 | GAAATTGC | 0.153
28 | GGTTACAC | -0.0711
29 | CATATCGC | -0.0927
30 | GGGGGAAC | -0.0945
31 | ACCTGCAC | 0.0483
32 | ATCAGATG | 0.0846
33 | GAACCCAA | 0.167
34 | CCTCCCTC | -0.0542
35 | GCAACTCC | -0.168
36 | ATTTGACG | 0.0163
37 | GTATGGGA | 0.0945
38 | AATGCGGC | 0.0925
39 | CGTGATAC | -0.0738
40 | GGATCTCA | -0.0912
41 | TGCACCCA | 0.151
42 | CAACGTGG | -0.0818
43 | CCAACCCC | -0.00845
44 | ACCATTAC | 0.127
45 | AGGTAGAC | -0.0661
46 | ATAGGGTC | -0.162
47 | GACTTCTC | 0.0467
48 | CATTGTCA | 0.0155
49 | CGAAAGCA | -0.149
50 | GTGTACCA | -0.195

Row | Sequence | PBM E-score
51 | CCAGGACC | -0.184
52 | CTCGCGTA | -0.0874
53 | GATGTGGC | 0.0493
54 | TATATCGA | -0.0192
55 | GAGCGGAC | 0.0999
56 | ATTCACTA | 0.0838
57 | AACCTCCG | -0.2
58 | TGAAACAA | 0.0585
59 | TACGCAGA | 0.0408
60 | ATCTGGGG | 0.0657
61 | TAGTATAA | -0.0308
62 | GCGTCCCA | 0.282
63 | AAAGCCCT | -0.146
64 | CGTAAGAC | -0.135
65 | CTAACGAC | -0.0103
66 | GGTTTAGA | -0.0707
67 | AAGATCCG | 0.0638
68 | ACTGTGCC | -0.157
69 | CCCTGAGA | 0.00198
70 | CCAACGTA | -0.0537
71 | ATCCATGC | -0.236
72 | GGACAACC | -0.0755
73 | CGAGGCCC | -0.0839
74 | ATACGGCA | 0.0373
75 | ACGTGTAT | 0.0211

Row | Sequence | PBM E-score
76 | AACACTAG | -0.0185
77 | ATATCAAT | 0.0526
78 | ACATCTGA | -0.221
79 | GCGATACA | 0.108
80 | ATGGCCCC | 0.0919
81 | CGAAGTAA | -0.0367
82 | CTAGATAA | 0.114
83 | ATCCTCTG | -0.0428
84 | AATTGCAT | -0.0597
85 | CCGCGCTA | -0.0123
86 | GTTCCATA | 0.174
87 | CAGCAAGG | -0.068
88 | GAGGAAGA | 0.171
89 | ACAAATGT | -0.0607
90 | AGGGATGA | -0.261
91 | CAGTGGCA | 0.155
92 | CAGAATTA | 0.191
93 | ATGAGTTA | -0.164
94 | AAATTTCC | -0.0261
95 | AGTAGGAT | 0.0978
96 | AGCTGCAT | -0.077
97 | CACCTACG | -0.0805
98 | ATACTAGA | 0.0992
99 | CGCGGGTA | -0.0289
100 | AACGACTG | -0.128

Row | Sequence | PBM E-score
101 | TTCCAAAA | 0.273
102 | ACGTCCCC | -0.0668
103 | AGTGTGAC | -0.234
104 | ATAGTCGG | 0.134
105 | GGCGCGGA | -0.0104
106 | CAGTAGGG | 0.203
107 | ACAGTAGA | 0.129
108 | AGGGTACG | -0.126
109 | ATCCTAGA | 0.125
110 | CAGGCTTC | 0.213
111 | AATTAGTC | 0.0909
112 | AATCCCCT | -0.0465
113 | GCCCAACA | -0.0925
114 | CAGTACAG | -0.0832
115 | AGCTGATG | -0.153
116 | CCGGACTC | -0.0713
117 | CAGTGCGA | 0.0683
118 | CCGAAGCC | 0.136
119 | GTCTCAAC | -0.0511
120 | AGTCCGAT | -0.112
121 | AATCACAA | 0.0103
122 | AAGGGCAT | -0.101
123 | ATTGAGAG | -0.0154
124 | AGCGGTAC | -0.126
125 | AAAGGATA | 0.152

Row | Sequence | PBM E-score
126 | GATTATAA | 0.108
127 | ACTGGTCA | -0.079
128 | GCCGGTCC | -0.0849
129 | GCAGAGAA | -0.0151
130 | AATGGAAA | 0.123
131 | CCGGGGAA | 0.0357
132 | CGCGAGCC | -0.189
133 | CGGCTCAC | -0.0993
134 | GTTTACCA | -0.022
135 | ATCGATAG | -0.102
136 | CATCTTAG | 0.171
137 | ACGCGACA | 0.0601
138 | GCACTTTA | 0.109
139 | ATCTCGGG | 0.0258
140 | GCAGACCA | -0.295
141 | ACTCCTGC | -0.116
142 | AAGCAGAG | -0.11
143 | GCGTGGTA | -0.119
144 | ACGAGGAA | -0.0503
145 | ACGCGACT | -0.087
146 | GAATAAAC | 0.0663
147 | ATGCCAAT | 0.0573
148 | AGCGTCCC | 0.347
149 | ATCACCTC | -0.0869
150 | GTAGGGGA | 0.0193

Row | Sequence | PBM E-score
151 | ATTGGAGG | -0.121
152 | GCGCGTCA | -0.142
153 | CCGTCTCA | -0.0463
154 | ACTAGCTC | -0.0664
155 | CATGAAGG | -0.0414
156 | AATTTATA | 0.181
157 | AGCAAGTG | -0.152
158 | CATTCGGG | 0.0638
159 | CAATACGG | -0.0061
160 | CCGTCGCA | -0.108
161 | AAGGCCTT | -0.343
162 | CTTGTTAC | -0.121
163 | ATGGTTAA | -0.0581
164 | GCATCCAA | 0.366
165 | CGACTACC | -0.0379
166 | ATGCGACC | 0.00481
167 | GACTAACA | 0.0577
168 | CCTCTGTA | 0.103
169 | AGCAGACC | 0.107
170 | AAGTCGTG | 0.0312
171 | ACCGGTCC | -0.0748
172 | CGGTCACA | -0.00572
